± gives the standard deviation. The entries are a selection whose mix differs from that of the whole data set.
Test system: MIWI (PIWIL1) piRISC loaded with L1MC piRNA (30 nt)
Assay: pre-steady-state target cleavage rate (min^-1); MIWI and MILI are mouse PIWI proteins and EfPiwi is from a freshwater sponge; tags in brackets are library labels; higher = faster piRNA-guided slicing of the target
Details: guide: L1MC piRNA 5'p-UAACUAAAUACUAUGCAAGCUGUAGGUCCU; auxiliary factor: 500 nM mouse GTSF1
Procedure, shortened: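 The pre-steady-state cleavage rate was obtained by Cleave-'n-Seq with a burst-and-steady-state fit. A transcribed, DNA-blocked target RNA library (0.1 nM) was mixed with 1 nM active affinity-purified piRISC carrying one synthetic guide, with or without 500 nM GTSF1 partner protein, in HEPES–potassium acetate buffer at 33 °C for 0–8 or 0–960 min. Uncleaved targets were sequenced and normalised to depth and to weakly complementary targets, with three trials pooled and k3 capped at 0.0001 min^-1.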

Sequence	pre-steady-state target cleavage rate
UCCUGGAUGUCGAACGUAUCAUAUUAGUUU [g2:g7:cont:t1U]	< 0.0001
UCCUGCUACAGCUUGCGAUAGUAUUUAGUUA	0.0285 ± 0.0087
UCCUGCUACAGCUUGCAUAGUAAAAACAAA	0.107 ± 0.028
UCCUGGAUGUCCUUGCAAAGUAUUUUGUUA	0.00918 ± 0.0043
UCCUGGUACAGCUUGCAUAGUUAAUAGUAA	0.0718 ± 0.024
AGGACCUACAGCUUCCAAAGUAUUUAGUUA	0.524 ± 0.034
UCCUCCUACAGCUUGCAUAGUAUGUAGUUA	0.172 ± 0.036
AGGACCUACAGCUUGCAAUCUAUUUAGAAA	0.0144 ± 0.006
AGGACCUACAGCUUCGAUAGUAUUUAGAAA	0.177 ± 0.036
UCCUGGAUGUCCUAGCAUAGUAUUUUGUUA	0.00704 ± 0.0048
UCCUCCUACAGCUUGCAUAGUAAAUAGUAA	0.267 ± 0.045
UCCUGGAUGUCCUUGCAUACUAUUUACUUA	0.00506 ± 0.0037
UCCUGGAUGAGCUUGGAAAGUAUUUAGUUA	0.218 ± 0.019
UCCUGGAUGUCGAUGCAUAGUAUUUGGUUA	0.0108 ± 0.004
UGGACCUACAGCUUCGUUAGUAUUUAGUAA	0.0272 ± 0.0054
UCGACCUACAGCUUGCAUAGUAUUUUCAAA [g6:g28:cont:t1A]	0.463 ± 0.056
AGGACCUACAGCUUGCAUAGUAUAAAGAAA	0.434 ± 0.077

Sequence	pre-steady-state target cleavage rate
UCCUGGAUGUGCUUGCAAUGUAUUUAGUAA	0.00378 ± 0.0032
UCCACCUACAGCUUGCAUAGUAAAAUCAAA	0.222 ± 0.068
UCCUGGAUCAGCUUCCAUAGUAUUUACUUA	0.00581 ± 0.0044
UGGACCUACAGGUUCCAUAGUAUUUAGUUA	0.0909 ± 0.03
UCCUGCUACAGCUUGCUAAGUAUUUAGAAA	0.0567 ± 0.015
UCCACCUACAGCUUGCCAUAGUAUUUAGUUA	0.243 ± 0.035
UCCACCUACAGGAUGCAUAGUAUUUAGAAA	0.37 ± 0.048
UCCUGGAUGAGCUUGCAUAGUAUAAUGAAA	0.0125 ± 0.0051
UCCUGGAUGUCCUUGCAUAGUAUAUACUUA	0.00478 ± 0.0047
UCCACCUACAGCUUGCAAUCUAUUUAGAAA	0.0562 ± 0.019
UCCUCCUACAGCUUCCAUAGUAUUUAGAAA	0.0194 ± 0.0093
UCCUGGAUGUCGUUGCAUAGUAUUUGAGUUA	0.0106 ± 0.0039
UCCUGGUACAGCUUGCAUUGUAUUUACAAA	0.0263 ± 0.0094
UGGACCUAGUGCUUGCAUAGUAUUUUCAAA	0.0146 ± 0.0034
UCCACCUACAGCUUCCAUAGUAUUAAGUUA	0.0358 ± 0.015
UCGACCUACAGCUUGCAAUAGUAUUUAGUUA	0.105 ± 0.022
UCCUGGAUGUGCUUGCAUAGUAUUUUCAAA	0.0136 ± 0.005

Same assay, conditions: guide: L1MC piRNA 5'p-UAACUAAAUACUAUGCAAGCUGUAGGUCCU; auxiliary factor: none (no GTSF1)

Sequence	pre-steady-state target cleavage rate
UCCUGGAUGAGCUUCGUUAGUAUUUAGAAA	< 0.0001
UGGACCUACAGCUUGCAUAUUAUUUAGUUA	0.0442 ± 0.0088
UCCUGGAUGUCGAACGAAAGUAUUUUGUUA	< 0.0001
UGGACCUACAGCUUGCAUAGUAUUUAGUUU [g2:g29:cont:t1U]	0.0974 ± 0.02
UCCUGGAUGUCGAACGUUAGUAUUUUCAAA [g6:g13:cont:t1A]	< 0.0001
UCCUGGAUGUCGAACGAUAGUAAUAAGUUA	< 0.0001

From the supplement of paper PMC10338343
